# Results from PubChem BioAssay AID624172 (National Center for Advancing Translational Sciences (NCATS), 2012).
# Among all 380,000 compounds or so, about 25 (0.007%) were called active. Inconclusive means that the source gave no clear call. Such entries were picked first, then a sample of the others. The call rests on the fitted dose curve; in most records, active means well fitted activation curve with a large enough effect; inconclusive means small, poorly fitted or top-dose-only effect; inactive means no such curve, though single readings can be large or run the other way. No potency is given beside an inconclusive call; the fits are too rough.
# Target: Glucagon-like peptide 1 receptor (Homo sapiens) (UniProt P43220)
# Chain of UniProt P43220 (P43220 whole entry, looked up): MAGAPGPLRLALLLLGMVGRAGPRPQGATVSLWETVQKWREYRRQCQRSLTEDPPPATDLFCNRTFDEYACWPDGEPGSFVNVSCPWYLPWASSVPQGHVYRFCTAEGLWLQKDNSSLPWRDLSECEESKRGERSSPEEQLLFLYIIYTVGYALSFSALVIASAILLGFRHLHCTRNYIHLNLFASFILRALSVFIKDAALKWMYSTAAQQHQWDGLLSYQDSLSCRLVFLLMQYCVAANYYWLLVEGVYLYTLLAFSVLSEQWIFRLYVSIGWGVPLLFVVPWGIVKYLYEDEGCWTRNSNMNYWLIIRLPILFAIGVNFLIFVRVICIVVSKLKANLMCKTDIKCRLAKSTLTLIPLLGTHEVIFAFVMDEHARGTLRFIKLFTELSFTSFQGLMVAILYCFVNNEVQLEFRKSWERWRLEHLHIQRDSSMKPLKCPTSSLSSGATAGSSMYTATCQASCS
# Assay: qHTS of GLP-1 Receptor Agonists; on activation: % of control where 0% means no effect
# Details: HEK293 GLP-1R CRE-luciferase, luminescence, 4-6 h, cells express a hypersensitive GLP-1R form; activation: at 45.6 µM (top of the series) unless noted
# Potency means the concentration at half of the fitted maximal effect; tags describe the fitted curve by direction and shape.
SMILES,Potency,activation
Cc1sc2ncnc(N(C)Cc3cccs3)c2c1C,"inconclusive [activator, single point]",–
C=CCn1c(SCC(=C)C)nc2c1c(=O)[nH]c(=O)n2C,"inconclusive [activator, partial curve, poor fit]",–
CNS(=O)(=O)c1ccc(OC)c(-c2nnc3c4ccccc4c(C)nn23)c1,"inconclusive [activator, single point]",–
Cc1cccc(C(=O)N[C@H](C(=O)Nc2ccc(S(=O)(=O)NC3=NCCCCC3)cc2)C(C)C)c1,inactive,–
Cc1cn2c(=O)cc(COc3ccc(NC(=O)c4cccc(F)c4)cc3)nc2s1,inactive,–
CC(=O)c1c(C)[nH]c(C(=O)OCc2cccc(C)c2)c1C,"inconclusive [activator, partial curve, poor fit]",–
CS(=O)(=O)c1ccc(Nc2nc(C(N)c3ccccc3)cs2)cc1 (configuration not stated),–,inconclusive: 32.2% [activator]
CCNc1nc(SCCOc2ccccc2)nc(N(C)C)n1,"inconclusive [activator, partial curve, poor fit]",–
Nc1nc(SCc2ccccn2)c2ncn(C3CCCC3)c2n1,"inconclusive [activator, partial curve, poor fit]",–
O=C(Nc1ccc2oc(-c3cccc4ccccc34)nc2c1)c1ncn[nH]1,inactive,–
CC(=O)c1cc(C#N)c(SCC(=O)OC(C)(C)C)nc1C,"inconclusive [activator, partial curve]",–
COc1ccc(N/C=C\C(=O)c2ccc3c(c2)OCO3)cc1OC,"inconclusive [activator, partial curve, poor fit]",–
CCOc1ccccc1Nc1cc2n(c(=O)n1)CCc1cc(OC)c(OC)cc1-2,"inconclusive [activator, partial curve, poor fit]",–
COc1ccc(-c2cnc3c(NC=O)cc(-c4ccc(C(=O)N5CCOCC5)cc4)cn23)cc1OC,"inconclusive [activator, full curve]",–
CCOc1ccc2ccccc2c1/C=N/NC(=O)c1cc(C)[nH]n1,–,inconclusive: 53.1% [activator]
CC(C)(C)Cc1nnc(NC(=O)c2ccc([N+](=O)[O-])cc2)s1,inactive,–
CC1CCc2sc3ncnc(N4CCN(CCO)CC4)c3c2C1 (configuration not stated),"inconclusive [activator, single point]",–
CCOC(=O)c1c(NC(=O)COC(=O)CCOc2ccc(OCC)cc2)sc(C(=O)N(C)C)c1C,inactive,–
N#CCSc1nc(N)c(C#N)c(C2CCCCC2)c1C#N,"inconclusive [activator, partial curve, poor fit]",–
CCOC(=O)CSC1=C(C#N)C(c2ccccc2F)C(C(C)=O)=C(C)N1 (configuration not stated),"inconclusive [activator, single point]",–
COc1cccc(C2=NN(C(=O)c3ccco3)C(c3ccco3)C2)c1 (configuration not stated),"inconclusive [activator, single point]",–
CCOc1ncccc1C(=O)OCCN1C(=O)c2ccccc2C1=O,"inconclusive [activator, single point]",–
Nc1nnc(-c2cn(-c3ccccc3)nc2-c2ccccc2)o1,"inconclusive [activator, partial curve, poor fit]",–

SMILES,Potency,activation
COc1ccc2ccccc2c1/C=N/NC(=O)c1ccc([N+](=O)[O-])cc1,inactive,–
CCOc1ccc(-c2c(C(=O)N/N=C(\C)c3ccco3)nnn2-c2nonc2N)cc1,inactive,–
CCn1c(=O)[nH]c(=O)c2c(N)c(C(=O)c3ccccc3OC)sc21,"inconclusive [activator, full curve]",–
CCCn1cnc2c(SCc3ccccc3Cl)nc(N)nc21,"inconclusive [activator, single point]",–
CCCC(=O)c1c(NC(C)C)cc(C)oc1=O,"inconclusive [activator, partial curve, poor fit]",–
CC(C)(c1ccccc1)c1ccc(OCC(O)CN2CCCC2)cc1 (configuration not stated),"inconclusive [activator, single point]",–
Clc1cccc(-c2cc3nc4c(c(N5CCOCC5)n3n2)CCCC4)c1,inactive,–
COc1ccc(CC2(c3ccccc3)NC(=O)NC2=O)cc1 (configuration not stated),inactive,–
COc1ccc2cc(S(=O)(=O)N3CCCCCC3)ccc2c1,"inconclusive [activator, partial curve, poor fit]",–
COc1ccc(/C=C2\C(=O)OCc3cc(OC)c(OC)cc32)cc1OC,"inconclusive [activator, single point]",–
COc1ccc(OC)c2sc(N3CCc4ccccc4C3)nc12,"inconclusive [activator, single point]",–
COCC(C)n1c(C)cc(C(=O)COC(=O)c2cnc(Cl)c(Cl)c2)c1C (configuration not stated),"inconclusive [activator, single point]",–
C=CCNc1nc2cc(-c3ccccc3C)sc2c(=O)n1C,"inconclusive [activator, single point]",–
O=C(COC(=O)/C=C/c1ccco1)Nc1ncc(Cl)cc1Cl,inactive,–
CCC(C)NC(=O)Cn1c(=O)n(-c2ccc(C)cc2)c(=O)c2ccccc21 (configuration not stated),inactive,–
CC(O)(c1cccnc1)c1nc(-c2ccc3ccccc3c2)cs1 (configuration not stated),"inconclusive [activator, single point]",–
Cc1ccc(CN2CC[C@H]3C=CCc4cccc(c43)C2)cc1,inactive,–
COc1cc(/C=C2\C(=O)N(C)C(=S)N2C)ccc1O,"inconclusive [activator, partial curve, poor fit]",–
CCOC(=O)C1C(=O)OC(C)(C)C1C(C)C(=O)c1ccc(C)cc1C (configuration not stated),"inconclusive [activator, single point]",–
COc1cc2c(cc1OC)C(c1ccc(-c3ccc(Cl)c(Cl)c3)o1)=NCC2,"inconclusive [activator, full curve, poor fit]",–
COc1cc(C#Cc2ccc3cc(CCO)oc(=O)c3c2)cc(OC)c1,"inconclusive [activator, partial curve, poor fit]",–
COc1cc2cc3c(N)c(C(=O)NCc4ccco4)sc3nc2cc1OC,"inconclusive [activator, single point]",–
CCOC(=O)c1sc(NC(=O)C2=COCCO2)c(C#N)c1C,"inconclusive [activator, partial curve, poor fit]",–

SMILES,Potency,activation
CCOC(=O)C1=C(O)/C(=C/c2cc(OC)c(O)c(OC)c2)SC1=Nc1ccc(OC)cc1,inactive,–
CC1=CC=CC2=N/C(=N\S(=O)(=O)c3ccc(F)cc3F)c3ccccc3CN12,"inconclusive [activator, single point]",–
CC(C)Sc1nnc(Nc2ccccc2)s1,"inconclusive [activator, partial curve, poor fit]",–
O=[N+]([O-])c1cccc(-c2nc3ccccc3s/c2=N/O)c1,"inconclusive [activator, partial curve, poor fit]",–
COc1ccc(-c2nc(-c3ccccc3)c(-c3cccs3)[nH]2)cc1OC,inactive,–
COc1ccc(C(=O)NC(=S)Nc2cccnc2)cc1[N+](=O)[O-],inactive,–
Cc1cc(=O)oc2c3c(cc(OCC(=O)NCc4ccncc4)c12)OC(C)(C)CC3,"inconclusive [activator, single point]",–
CC(C)(C)c1nc(NCCO)c2nnn(Cc3ccccc3)c2n1,"inconclusive [activator, single point]",–
O=C(CNc1ccc(F)cc1)N/N=C1\CCc2ccccc21,inactive,–
COc1ccc(F)cc1-c1cc(NC(C)=O)c2ncc(-c3cc(OC)c(OC)c(OC)c3)n2c1,"inconclusive [activator, partial curve, poor fit]",–
COc1ccccc1-c1nnc2n1N=C(c1ccc(O)c(O)c1)CS2,"inconclusive [activator, partial curve]",–
Cc1ccc(NC(=S)N/N=C/c2c(Cl)cccc2Cl)c(C)c1,"inconclusive [activator, single point]",–
CCCN(CC(=O)Nc1ccccc1Br)CC(=O)Nc1ccc(F)c(F)c1F,inactive,–
COc1ccc(-c2cnc3c(NC(C)=O)cc(-c4ccc(C(=O)NC5CC5)cc4)cn23)cc1OC,"inconclusive [activator, partial curve, poor fit]",–
O=C(COC(=O)c1cc([N+](=O)[O-])ccc1NCCO)Nc1cccnc1Cl,"inconclusive [activator, partial curve]",–
O=C(c1ccco1)N1CCN(C(=O)C2CCCc3c2[nH]c2ccc(Cl)cc32)CC1 (configuration not stated),inactive,–
CCCCSc1nc(C)c(C(C)=O)cc1C#N,"inconclusive [activator, single point]",–
COc1ccc(-c2nc(C(N)=O)c3[nH]c(=O)n(-c4cccc(C)c4)c3n2)c(OC)c1,"inconclusive [activator, partial curve]",–
COc1ccc(C=C2C=C(C(C)(C)C)C(=O)C(C(C)(C)C)=C2)cc1OC,inactive,–
CCOC(=O)c1nc(C)sc1-c1ccnn1S(=O)(=O)c1ccc(Cl)cc1Cl,"inconclusive [activator, single point]",–
COc1ccc(-c2csc(C3=C(O)CN(C(C)C)C3=N)n2)cc1OC,"inconclusive [activator, partial curve]",–
